Consider 68 compounds from PubChem BioAssay AID1487 (National Center for Advancing Translational Sciences (NCATS), 2009).

In all, about 200,000 compounds went through this assay and about 25 (0.01%) were called active. Not shown: some 23% with an inconclusive outcome. Calls follow the shape of the dose curve; as a rule, active = well fitted inhibition curve with a large enough effect in the signal ratio, with a control signal flat (not every such curve was filed as active); inconclusive = small, poorly fitted or top-dose-only effect, or effect the other way, or a change in a side signal; inactive = flat fitted curve, though single readings scatter; the % refers to the signal ratio. The list shows a part of the results, in another mix than the full data.
% is scaled to controls: 0 for no effect and ±100 for the full control effect; potency is read from the fitted curve at half-maximal effect.

This assay can be described thus: qHTS Assay for Modulators of Lamin A Splicing. The note with it: HeLa LMNA splicing GFP/RFP minigene ratio, 48 h; series mostly up to 46.1 µM; ratio change, negative = inhibition: at the top concentration. From the text:
NCGC Assay Overview: Hutchinson-Gilford Progeria Syndrome (HGPS) is a pediatric premature aging disease caused by a spontaneous mutation in the lamin A/C (LMNA) gene. The mutation activates a cryptic splice site in the LMNA pre-mRNA which results in production of a pre-lamin A protein that cannot be processed properly. The mutant protein accumulates in the nucleus and negatively affects numerous cellular functions. Correction of the splicing defect in HGPS patient cells using a targeted oligonucleotide (exo11) leads to reversal of the cellular disease phenotypes. To identify small molecule modulators of aberrant LMNA splicing, a homogenous assay was constructed in HeLa cells that used a GFP containing minigene to report on correction of aberrant splicing in lamin A and a RFP (DsRed2) to report on cell viability, uniformity and nonspecific effects on the assay signal. This assay was adapted to laser-scanning microplate cytometry (Acumen, TTP Labtech) where miniaturization of the assay to a 1,536-well plate format was possible. References: Bowen, W. P.; Wylie, P. G. Application of Laser-Scanning Fluorescence Microplate Cytometry in High Content Screening. Assay Drug Dev Technol 2006;4:209-221. Scaffidi P, Misteli T. Reversal of the cellular phenotype in the premature aging disease Hutchinson-Gilford progeria syndrome. Nat.
NCGC Assay Protocol Summary: Reagents/Controls: Stable clones expressing DsRed2 and lamin A-EGFP were generated by Cell and Molecular Technologies in S3 HeLa cells. HeLa cells were prepared for the assay when they were 70-90% confluent. The cells were counted and resuspended in Opti-MEM I (no phenol red; Gibco), 2% FBS, 1% penicillin/ streptomycin (Gibco) at concentration of 120 cells/uL concentration. The suspension was passed through a Falcon basket filter with pore size 40um (Beckton Dickson). Control titrations: column […] 1536-well plate contained a sixteen point titration (1:2 dilutions) in duplicate of ancitabine (Sigma: A8598) beginning at 40 uM final concentration. Column 2 contained a sixteen point titration (1:2 dilutions) of cycloheximide beginning at 1.4 mM final concentration. Column 3 contained ancitabine at 40 uM and column 4 contained was the vehicle control (0.5% DMSO final concentration). Assay Steps: 5 uL of HeLa cells were plated in Aurora LoBase black clear bottom (cyclic-olefin polymer) 1536-well plates at a final density of 600 cells/well. Controls and library compounds were added with a 1536-well pin array using the Kalypsys pin-tool. The plates were then incubated for 48 hrs in a cell-culture incubator (37 °C; 5% CO2, 98% humidity). Following incubation the plates were read on the Acumen Explorer using the 488 nm laser. Data was collected on objects between 10 and 100 um in size. Cell objects were defined by a 15 um width x 10 um depth filter. The ratio of the total object intensity in PMT1 (500-530 nm emission; GFP) over PMT3 (575-640 nm emission; RFP) was calculated for analysis. Keywords: NIH Roadmap, MLSCN, MLI, MLSMR, qHTS, NCGC, lamin A, Progeria, RNA splicing.
On the technique in general: In qHTS, concentration-response curves come from the screen itself.
For the compound `N[C@@H](Cc1c[nH]c2ccccc12)C(=O)O`, the “ratio change, negative = inhibition” value is inactive: -5.06%.

Regarding `NS(=O)(=O)c1cc2c(cc1C(F)(F)F)NCNS2(=O)=O`, the “ratio change, negative = inhibition” value was inactive: 2.96%.

Consider `O=C(O)CCCCCN1C(=O)/C(=C/c2ccncc2)SC1=S`, for which the “ratio change, negative = inhibition” value was inactive: -17.9%.

With `Cc1noc(C)c1-c1ccc2ncnc(N3CCOCC3)c2c1`, the Potency is active: 10 µM.

`CCOC(=O)C1CCCN(S(=O)(=O)c2ccc(F)c(C(=O)Nc3ccc(F)c(F)c3)c2)C1` (stereo not drawn): the “ratio change, negative = inhibition” value was inactive: -19.4% [at 46 µM].

Regarding `CC(=O)c1cc2c(cc1N/C(=N/S(=O)(=O)c1ccc(C)cc1)c1ccccc1)OCO2`, the “ratio change, negative = inhibition” value is inactive: -0.0955%.

With `NS(=O)(=O)c1cc2c(cc1Cl)NC(C1CC3C=CC1C3)NS2(=O)=O` (stereo not drawn), the “ratio change, negative = inhibition” value was inactive: -17.9%.

Take `CCN(CC)CC(=O)Nc1c(C)cccc1C`: the Potency result is “inactive”.

As for `c1ccc2c(CC3=NCCN3)cccc2c1`, the “ratio change, negative = inhibition” value was inactive: 1.63%.

As to `Cc1cn([C@H]2C=C[C@@H](CO)O2)c(=O)[nH]c1=O`, the “ratio change, negative = inhibition” value is inactive: -10.3%.

With `C[C@H](CO)NC(=O)[C@H](C)[C@H]1C[C@]1(C)[C@H](NC(=O)OCc1ccccc1)c1ccccc1`, the “ratio change, negative = inhibition” value is inactive: -2.32%.

With `COC(=O)C1C(O)CC[C@@H]2CN3CCc4c([nH]c5ccccc45)C3C[C@@H]12` (stereo partly drawn), the “ratio change, negative = inhibition” value was inactive: -2.86%.

Consider `Cn1cnc([N+](=O)[O-])c1Sc1ncnc2nc[nH]c12`, for which the “ratio change, negative = inhibition” value was inactive: -22.6%.

As for `O=c1[nH]c2ccccc2n1CCCN1CCN(C(c2ccccc2)c2ccccc2)CC1`, the “ratio change, negative = inhibition” value is inactive: -26.6%.

For `OCCN(CCO)c1nc(N2CCCCC2)c2nc(N(CCO)CCO)nc(N3CCCCC3)c2n1`, the “ratio change, negative = inhibition” value is inactive: 0.0992%.

For `COCCN1C(=O)N[C@@H](c2cccc(C(F)(F)F)c2)[C@H](C(=O)OC)[C@H]1C`, the ratio change, negative = inhibition was inactive: -9.9% [at 9.22 µM].

As for `COc1ccc(C(=O)COC(=O)CCN2C(=O)C3C4CC(C(Br)C4Br)C3C2=O)cc1` (stereo not drawn), the “ratio change, negative = inhibition” value was inactive: 2.06%.

Take `NS(=O)(=O)c1ccc(NC(=O)CSc2ccc3ccccc3n2)cc1`: the “ratio change, negative = inhibition” value is inactive: -5.25%.

`N[C@@H](Cc1cc(I)c(Oc2ccc(O)c(I)c2)c(I)c1)C(=O)O`: the “ratio change, negative = inhibition” value was inactive: -2.04%.

In the case of `NC(=O)CC[C@H](N)C(=O)O`, the Potency entry is “inactive”.

Turning to `C[C@@H](CCc1ccc(O)cc1)NCCc1ccc(O)c(O)c1`, the “ratio change, negative = inhibition” value is inactive: -13%.

As to `CC(C)OC(=O)C(C)(C)Oc1ccc(C(=O)c2ccc(Cl)cc2)cc1`, the “ratio change, negative = inhibition” value was inactive: 6.48%.

Consider `CCOc1ccc2nc(S(N)(=O)=O)sc2c1`, for which the “ratio change, negative = inhibition” value was inactive: -4.24%.

For the compound `CCOc1ccc(C(=O)OCCN(CC)CC)cc1`, the “ratio change, negative = inhibition” value is inactive: 10.6%.

In the case of `COc1ccc2cc([C@H](C)C(=O)O)ccc2c1`, the Potency result was “inactive”.

For the compound `CC1(C)S[C@@H]2[C@H](NC(=O)[C@H](N)c3ccccc3)C(=O)N2[C@H]1C(=O)O`, the Potency entry is “inactive”.

Turning to `O=c1n(CCCN2CCN(c3cccc(Cl)c3)CC2)nc2ccccn12`, the Potency result is “inactive”.

For `CCC(NC(C)C)C(O)c1ccc(O)c2[nH]c(=O)ccc12` (stereo not drawn), the “ratio change, negative = inhibition” value is inactive: -7.79%.

`CCCn1c(=O)c2[nH]c(C3CCCC3)nc2n(CCC)c1=O`: the Potency entry is “inactive”.

`CCCN(CCC)CCc1cccc2c1CC(=O)N2`: the “ratio change, negative = inhibition” value was inactive: -16.4%.

Turning to `NC1CONC1=O` (stereo not drawn), the “ratio change, negative = inhibition” value is inactive: -23.2%.

Regarding `O=C(Nc1cccc(Oc2c(F)c(F)c(F)c(F)c2F)c1)N1C[C@@H]2C[C@@H](C1)c1cccc(=O)n1C2`, the “ratio change, negative = inhibition” value is inactive: 13.9%.

Regarding `CNCCCC12CCC(c3ccccc31)c1ccccc12`, the “ratio change, negative = inhibition” value is inactive: -4.54% [at 46 µM].

Consider `C[C@]12C=CC(=O)C=C1CC[C@H]1[C@@H]3C[C@@H](O)[C@](O)(C(=O)CO)[C@@]3(C)C[C@H](O)[C@@]12F`, for which the “ratio change, negative = inhibition” value is inactive: 8.2%.

With `COC(=O)[C@H]1C[C@@H]1[C@H](NS(=O)(=O)c1ccccc1)c1ccccc1`, the “ratio change, negative = inhibition” value is inactive: 5.81%.

In the case of `CCC[C@@H]1O[C@@H]2C[C@@H]3[C@H]4CCC5=CC(=O)C=C[C@@]5(C)[C@H]4[C@H](O)C[C@@]3(C)[C@@]2(C(=O)CO)O1`, the “ratio change, negative = inhibition” value is inactive: 10%.

Consider `CC(=O)CCCCn1c(=O)c2c(ncn2C)n(C)c1=O`, for which the Potency entry is “inactive”.

For the compound `NCCNCCNCCN`, the “ratio change, negative = inhibition” value is inactive: -3.16%.

In the case of `CCN1/C(=C\c2ccc3cc(C)ccc3[n+]2CC)Sc2cc(C)c(C)cc21`, the “ratio change, negative = inhibition” value is inactive: -14.6% [at 46 µM].

Turning to `Cc1noc(C)c1-c1ccc2ncnc(NCCN3CCOCC3)c2c1`, the Potency is active: 10 µM.

With `COc1cc2nc(N3CCN(C(=O)[C@@H]4CCCO4)CC3)nc(N)c2cc1OC`, the “ratio change, negative = inhibition” value was inactive: -4.32%.

With `C[C@]12C[C@H](O)[C@H]3[C@@H](CCC4=CC(=O)CC[C@@]43C)[C@@H]1CC[C@@H]2C(=O)CO`, the “ratio change, negative = inhibition” value was inactive: -5.33%.

As to `CN1C(=O)CCC1c1cccnc1` (stereo not drawn), the “ratio change, negative = inhibition” value was inactive: -16.6%.

For the compound `Nc1c2c(nc3ccccc13)CCCC2`, the “ratio change, negative = inhibition” value was inactive: -12.2%.

As for `Cc1ccc(-n2c(O)c(/C=N/n3cnnc3)c3ccccc3c2=O)cc1`, the “ratio change, negative = inhibition” value was inactive: -12.3%.

Take `CC1(C)S[C@@H]2[C@H](NC(=O)C(C(=O)O)c3ccccc3)C(=O)N2[C@H]1C(=O)O` (stereo partly drawn): the “ratio change, negative = inhibition” value was inactive: -1.01%.

With `C[C@@H](CN1c2ccccc2Sc2ccccc21)N(C)C`, the “ratio change, negative = inhibition” value was inactive: -15.2%.

On to `CC(C(=O)O)c1cccc(C(=O)c2ccccc2)c1` (stereo not drawn), for which the Potency result was “inactive”.

As to `Cc1occc(=O)c1O`, the “ratio change, negative = inhibition” value was inactive: 2.22%.

Consider `CCOc1cc(CC(=O)N[C@@H](CC(C)C)c2ccccc2N2CCCCC2)ccc1C(=O)O`, for which the “ratio change, negative = inhibition” value was inactive: 23.4% [at 46 µM].

For `COc1ccc(C(=O)c2ccccc2)c(O)c1`, the “ratio change, negative = inhibition” value is inactive: 21.4%.

As to `CC(=O)OCC(=O)[C@@]1(O)[C@H](C)C[C@H]2[C@@H]3CCC4=CC(=O)C=C[C@]4(C)[C@@]3(F)[C@@H](O)C[C@@]21C`, the “ratio change, negative = inhibition” value was inactive: -2.89%.

As for `CC(C)NCC(O)c1ccc(O)c(O)c1` (stereo not drawn), the Potency result was “inactive”.

For `CC1=C(CC(=O)O)c2cc(F)ccc2/C1=C\c1ccc(S(C)=O)cc1` (stereo not drawn), the “ratio change, negative = inhibition” value is inactive: -12.9%.

Take `Cc1onc(-c2ccccc2)c1-c1ccc(S(N)(=O)=O)cc1`: the “ratio change, negative = inhibition” value is inactive: 5.76% [at 46 µM].

For `CN1CCc2c(c3ccccc3n2Cc2ccccc2)C1`, the “ratio change, negative = inhibition” value is inactive: -0.39%.

Regarding `OCCOCCN1CCN(C2=Nc3ccccc3Sc3ccccc32)CC1`, the “ratio change, negative = inhibition” value is inactive: -13.4%.

For `CC1(C)S[C@@H]2[C@H](NC(=O)[C@H](N)c3ccc(O)cc3)C(=O)N2[C@H]1C(=O)O`, the “ratio change, negative = inhibition” value was inactive: 3.69%.

Regarding `O=C(O)[C@@H](O)c1ccccc1`, the “ratio change, negative = inhibition” value was inactive: 2.4% [at 46 µM].

Turning to `NC(=O)c1cc[n+](CC2=C(C(=O)O)N3C(=O)[C@@H](NC(=O)[C@@H](c4ccccc4)S(=O)(=O)[O-])[C@H]3SC2)cc1`, the “ratio change, negative = inhibition” value was inactive: -12.7%.

With `CC[N+](C)(C)Cc1ccccc1Br`, the Potency result is “inactive”.

Regarding `Cc1oncc1C(=O)Nc1ccc(C(F)(F)F)cc1`, the “ratio change, negative = inhibition” value is inactive: -8.66%.

Take `CC(CCc1ccccc1)NCC(O)c1ccc(O)c(C(N)=O)c1` (stereo not drawn): the “ratio change, negative = inhibition” value was inactive: -1.16%.

As for `Cc1cn(C2C=CC(CO)O2)c(=O)[nH]c1=O` (stereo not drawn), the “ratio change, negative = inhibition” value was inactive: -5.56%.

Take `Cc1cc(C(C)(C)C)c(O)c(C)c1CC1=NCCN1`: the “ratio change, negative = inhibition” value was inactive: -7.47%.

On to `CN1CCN(c2nc(-c3cccnc3)nc3ccccc23)CC1`, for which the “ratio change, negative = inhibition” value is inactive: -11.6%.

As to `COc1ccc2c(c1OC)C(=O)OC2C1c2c(cc3c(c2OC)OCO3)CCN1C` (stereo not drawn), the “ratio change, negative = inhibition” value is inactive: -0.345%.

As for `CCCN1C[C@H](CSC)C[C@@H]2c3cccc4[nH]cc(c34)C[C@H]21`, the “ratio change, negative = inhibition” value was inactive: -13.6%.
